# Where “and” joins values, the source holds several entries; their conditions need not be identical. Equal entries are not always repeated. This list was built around the results that the source calls inconclusive (neither active nor inactive); the mix of calls is not that of the screen. For part of these data: Potencies of inconclusive entries are doubtful fits and often do not repeat. Calls of active or inactive are those of the source. Calls come from the whole dose curve; as a rule, active = well fitted inhibition curve with a large enough effect; inconclusive = small, poorly fitted or top-dose-only effect; inactive = flat fitted curve, though single readings scatter.
# Assays:
# [1] = system: HEK293; assay: Cytotoxic Profiling of Annotated Libraries Using Quantitative High-Throughput Screening (AID 1296008); conditions: Five cell lines viability, CellTiter-Glo ATP luminescence, 48-72 h; max response: stronger effect = lower value; note: nearly all actives have a fitted effect of over 60% in size; for max response: % is set by controls: 0 for no effect and ±100 for the full control effect
# Summary of the method: (§1)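 Compounds were pin-transferred onto cells and incubated 48 or 72 hr at 37 degree Celsius, 95% humidity. CellTiter-Glo was added, plates sat 10 min at room temperature, then ATP-coupled luminescence was imaged as the viability read-out.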
# [2] = system: MCC-13; assay: qHTS assay to identify novel small-molecules to repurpose for Merkel cell carcinoma treatment (AID 1296009); conditions: MCC and control cell lines, CellTiter-Glo viability, 72 h; series mostly up to 46 µM; note: nearly all actives have a fitted effect of over 60% in size
# Summary of the method: (§2)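 Cells exposed to NPC (8-point) and MIPE (11-point) compound dilutions for 72 hr at 37 degree celsius; viability read by CellTiter-Glo luminescence, normalized to no-cell and DMSO in-plate controls.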
# [3] = system: MCC-26; assay: as above; conditions: MCC and control cell lines, CellTiter-Glo viability, 72 h; series mostly up to 46 µM
# Summary of the method: as §2
# [4] = system: MKL-2; assay: as above; conditions: MCC and control cell lines, CellTiter-Glo viability, 72 h; series mostly up to 46 µM
# Summary of the method: as §2
# [5] = Drug repurposing screens with cells derived from glioblastoma tumor samples (AID 1345199); conditions: GBM patient neurospheres viability, ATP luminescence, 48 h; Potency: tumour line A unless noted; activity, negative = cell killing: at 46 µM (top of the series), tumour line A unless noted; note: nearly all actives have a fitted effect of over 40% in size
# Summary of the method: (§3)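 Four patient lines of CD133+ GBM neurospheres were screened at several concentrations; hits were retested in those lines plus three slower-growing GBM lines, using 48-hour treatment and ATP-based viability.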
# [6] = system: KB-3-1; assay: Cytotoxic Profiling of Annotated Libraries Using Quantitative High-Throughput Screening (AID 1296008); conditions: Five cell lines viability, CellTiter-Glo ATP luminescence, 48-72 h; max response: stronger effect = lower value; note: nearly all actives have a fitted effect of over 60% in size; for max response: % is set by controls: 0 for no effect and ±100 for the full control effect
# Summary of the method: as §1
# [7] = system: W2; assay: qHTS profiling for inhibitors of Plasmodium falciparum proliferation (AID 504749); note: nearly all actives have a fitted effect of over 60% in size; conditions: P. falciparum in erythrocytes, SYBR Green DNA, 72 h; series mostly up to 28.7 µM
# Summary of the method: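 P. falciparum-infected erythrocytes (0.3% parasitemia, 2.5% hematocrit final) were exposed to compounds for 72 h at 37 C in 5% CO2, then lysed with SYBR Green buffer overnight at room temperature; parasite DNA fluorescence was normalized to artemisinin and DMSO controls.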
# [8] = system: MKL-1; assay: qHTS assay to identify novel small-molecules to repurpose for Merkel cell carcinoma treatment (AID 1296009); conditions: MCC and control cell lines, CellTiter-Glo viability, 72 h; series mostly up to 46 µM; note: nearly all actives have a fitted effect of over 60% in size
# Summary of the method: as §2
# [9] = system: UISO; assay: as above; conditions: MCC and control cell lines, CellTiter-Glo viability, 72 h; series mostly up to 46 µM
# Summary of the method: as §2
# [10] = system: WaGa; assay: as above; conditions: MCC and control cell lines, CellTiter-Glo viability, 72 h; series mostly up to 46 µM
# Summary of the method: as §2
# [11] = system: astro; assay: Drug repurposing screens with cells derived from glioblastoma tumor samples (AID 1345199); conditions: viability, ATP luminescence, 48 h; activity, negative = cell killing: at 45.9 µM (top of the series); note: nearly all actives have a fitted effect of over 40% in size
# Summary of the method: as §3
# Potency is the fitted concentration of half-maximal effect; tags give direction and shape of the fitted curve.
compound,measurement,setting,value
CCCCN1C[C@H](O)[C@@H](O)[C@H](O)[C@H]1CO,max response,[1],inactive: -7.96%
same,Potency,[2],inactive
same,Potency,[3],inactive
same,Potency,[4],inactive
same,Potency,[5],"inconclusive: 14.1 µM [inhibitor, partial curve]"
CC(CN(C)C)C(C)(O)Cc1ccc(Cl)cc1 (stereo unspecified),max response,[1],inactive: 3.34%
same,Potency,[2],inactive
COc1ccc(C2C(=O)c3ccccc3C2=O)cc1,max response,[1],inactive: -6.61%
same,max response,[6],inactive: 1.39%
same,Potency,[3],inactive
same,Potency,[4],inactive
same,Potency,[5],"inconclusive: 11.2 µM [inhibitor, partial curve]"
COc1ccc(CN2CCN(C(c3ccc(F)cc3)c3ccc(F)cc3)CC2)c(OC)c1OC,Potency,[7],active: 3.38 µM
same,Potency,[1],"inconclusive: 33.5 µM [inhibitor, single point] and inconclusive: 29.1 µM [inhibitor, single point]"
same,Potency,[6],"inconclusive: 18.4 µM [inhibitor, single point]"
same,Potency,[8],"inconclusive: 18.8 µM [inhibitor, single point]"
same,Potency,[4],"inconclusive: 26.6 µM [inhibitor, single point]"
same,Potency,[9],"inconclusive: 26.6 µM [inhibitor, partial curve, poor fit]"
same,Potency,[10],"inconclusive: 29.9 µM [inhibitor, single point]"
O=C1OCCN1/N=C/c1ccc([N+](=O)[O-])o1,max response,[1],inactive: -25%
same,Potency,[8],"inconclusive: 21.1 µM [inhibitor, partial curve, poor fit]"
same,Potency,[4],"inconclusive: 29.9 µM [inhibitor, single point]"
same,Potency,[9],"inconclusive: 23.7 µM [inhibitor, partial curve, poor fit]"
same,Potency,[10],"inconclusive: 15 µM [inhibitor, partial curve, poor fit]"
Clc1ccc2c(c1)C(N1CCNCC1)=Nc1ccccc1O2,Potency,[1],"inconclusive: 33.2 µM [inhibitor, single point] and inconclusive: 4.73 µM [inhibitor, full curve]"
same,Potency,[6],"inconclusive: 32.6 µM [inhibitor, partial curve, poor fit]"
same,Potency,[8],inactive
same,Potency,[4],inactive
same,Potency,[5],active: 14.1 µM
same,Potency,[11],"inconclusive: 17.8 µM [inhibitor, partial curve]"
C=Cc1c(C)c2cc3nc(cc4[nH]c(cc5nc(cc1[nH]2)C(C)=C5CCC(=O)O)c(CCC(=O)OC)c4C)[C@@]1(C)C3=CC=C(C(=O)OC)[C@H]1C(=O)OC,Potency,[1],active: 11.8 µM
same,Potency,[2],"inconclusive: 33.2 µM [inhibitor, single point]"
same,Potency,[3],active: 2.96 µM
same,Potency,[8],active: 0.0469 µM
same,Potency,[9],active: 0.469 µM
same,Potency,[10],"inconclusive: 0.0105 µM [inhibitor, full curve, poor fit]"
